Measured values as given in patent publication US20240174760A1 (ZHEJIANG NANOMAB TECHNOLOGY CENTER, published 2024).

T1: biotin-TACI (Acrobiosystems, TAI-H82F6) (human, UniProt O14836 2-166, limits assumed, biotin)
T1 construct: Bought protein; also called human TACI
T1 sequence (looked up): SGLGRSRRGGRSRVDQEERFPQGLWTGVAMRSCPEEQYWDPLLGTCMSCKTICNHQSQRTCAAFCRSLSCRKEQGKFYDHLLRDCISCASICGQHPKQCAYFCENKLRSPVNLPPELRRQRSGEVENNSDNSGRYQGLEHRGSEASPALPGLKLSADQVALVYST

T2: mouse BCMA his tag (Acrobiosystems, BCA-M52H3) (mouse, UniProt O88472 1-49)
T2 construct: Bought protein; also called murine BCMA; not shown: his tag
T2 chain (looked up): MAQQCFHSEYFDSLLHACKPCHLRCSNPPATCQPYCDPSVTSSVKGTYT

T3: biotin-BAFFR (Acrobiosystems, BAR-H5257) (human, UniProt Q96RJ3 7-71, limits assumed, biotin)
T3 construct: Bought protein; also called human BAFFR
T3 sequence (looked up): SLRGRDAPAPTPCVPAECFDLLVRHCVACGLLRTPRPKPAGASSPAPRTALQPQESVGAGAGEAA

T4: human BCMA his tag protein (Acrobiosystems, BCA-H522y) (human, UniProt Q02223 1-54)
T4 construct: Bought protein; also called BCMA/TNFR-His; human recombinant BCMA his tag; not shown: his tag
T4 sequence (looked up): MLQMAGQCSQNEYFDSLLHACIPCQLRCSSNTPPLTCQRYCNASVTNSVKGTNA

B1: NB-1 (Fc fusion)
heavy: EVQLVESGGGLVQPGGSLRLSCAASGFTFRSSAMSWARQAPGKGLEWVSDIYPDGRTDYADSIKGRFTMSRDNAKNTVYLLMDSLKPEDTAVYHCQVGRYVSGVYYQPRGQGTQVTVSS[human IgG1 Fc with changes not written out]
notes: also called NB-1 antibody; VHH-hIgG4
B2: NB-51 (Fc fusion)
heavy: QVQLVESGGGLAQPGGSLRLSCAASGFTFSSSAMSWARQAPGKGLEWVSDIYPDGSAYYADSMKGRFTISRDNAKNTVYLQMDSLKPEDTAVYHCQVGRYVSGVDYQPRGQGTQVTVSS[human IgG1 Fc with changes not written out]
notes: also called NB-51 antibody; VHH-hIgG4
B3: NB-27 (Fc fusion)
heavy: EVQLVESGGGLVQPGGSLRLSCAASGSISSIYAMGWYRQAPGKLRGLVAAITSGGNTFYADSVKGRFTISRDNAKNTVYLQMNSLKPEDTAVYDCNAAPWGSYSPGPGDIASWGQGTQVTVSS[human IgG1 Fc with changes not written out]
notes: also called NB-27 antibody; VHH-hIgG4
B4: NB-29 (Fc fusion)
heavy: EVQLVESGGGLVQPGESLRLSCAASGFTFSSSAMSWARQAPGKGLEWVSGIYSDGSTYYADSVKGRFTISRDNAKNTVYLQMNSLKPEDTAVYLCAVGAPLVYAAYRPWGQGTQVTVSS[human IgG1 Fc with changes not written out]
notes: also called NB-29 antibody; VHH-hIgG4
B5: NB-36 (Fc fusion)
heavy: QVQLVESGGGLVQPGGSLRLSCAASGFTFSSSAMSWARRPPGKGLEWVSDIYPDGSTTYADSMKGRFTISRDNAKNTVYLEIYSLKPEDTAVYYCVIGRRGYAMGDRRLRGQGTQVTVSS[human IgG1 Fc with changes not written out]
notes: also called NB-36 antibody; VHH-hIgG4
B6: NB-71 (Fc fusion)
heavy: EVQLVESGGGLVQPGGSLRLSCAASGFTFSSSAMSWARQAPGKGLEWVSDIYPDGTPTYADSMEGRFTISRDNAKNTVHLQIDSLKPEDTAVYYCVVGRRGYAMGDRALRGQGTQVTVSS[human IgG1 Fc with changes not written out]
notes: also called NB-71 antibody; VHH-hIgG4
B7: NB-53 (Fc fusion)
heavy: QVQLVESGGGLVQPGGSLRLSCAASGFTFSPSAMSWARQAPGKGLEWVSSIYPDGSTLYADSMKGRFTISRDNAKNTVSLQMNSLKPEDTAVYYCAIGLAPGYRDPNLRGQGTQVTVSS[human IgG1 Fc with changes not written out]
notes: also called NB-53 antibody; VHH-hIgG4
B8: NB-65 (Fc fusion)
heavy: QVQLVESGGGLVQPGGSLRLSCAASGFTFSSSAMSWARQAPGKELEWVSAIYSDGSTYYADSVKGRFTISRDNAKNTIYLQMNSLKPEDTANYICAIGDVRGRWDSRPRHEWTYWGQGTQVTVSS[human IgG1 Fc with changes not written out]
notes: also called NB-65 antibody; VHH-hIgG4
B9: NB-79 (Fc fusion)
heavy: EVQLVESGGGSVQPGGSLRLSCAASGFTFSPSAMSWARQAPGKGFEWVSSIYGDGRAYYADSMKGRFTISRDNAKHTVYLQMNSLKPEDTALYYCGIGRWYDQREKEKDLWGQGTQVTVSS[human IgG1 Fc with changes not written out]
notes: also called NB-79 antibody; VHH-hIgG4
B10: NB-102 (Fc fusion)
heavy: QVQLVESGGDLVQPGGSLRLSCAASGFTFSPSAMSWARQAPGKGFEWVSTIYPDGRTYYSDSMKGRFTISRDNAKNTVYLQMHSLKPEDTALYYCGIGRWYENREKEKDLWGQGTQVTVSS[human IgG1 Fc with changes not written out]
notes: also called VHH-hIgG4
B11: NB-257 (Fc fusion)
heavy: EVQLVESGGGLVQPGGSLRLSCAASGFTFSPSAMSWARQAPGKGFEWVSSIYSDGRAYYADTMKGRFTISRDNAKNTVYLQMNSLRPEDTALYYCGIGRWYEKREKEKGFWGQGTQVTVSS[human IgG1 Fc with changes not written out]
notes: also called VHH-hIgG4
B12: NB-352 (Fc fusion)
heavy: QVQLVESGGGLVQPGGSLRLSCAASGFTFSPSAMSWARQAPGKGLEWVASIYGDGRPYYADSMKGRFTISRDNAKNTVYLQMNSLKPEDTALYYCAVGLWYEKREKEKDLWGQGTQVTVSS[human IgG1 Fc with changes not written out]
notes: also called NB-352 antibody; VHH-hIgG4
B13: NB-84 (Fc fusion)
heavy: QVQLVESGGGLVQPGGSLRLSCAASGFTFSSSAMSWARQAPGKGLEWVSSIYPDGTAYYADSMKGRFAISRDNARNTVYLQMNSLKPEDTALYQCAIGRWYDQRKKEPGLWGQGTQVTISS[human IgG1 Fc with changes not written out]
notes: also called NB-84 antibody; VHH-hIgG4
B14: NB-100 (Fc fusion)
heavy: QVQLVESGGGLVQPGGSLRLSCAASGFTFSSSAMSWARQAPGKGLEWVSSIYPDGTAYYADSMKGRFAISRDNARNTVYLQMNSLKPEDTALYQCAVGRWYEQRKKEPGLWGQGTQVTISS[human IgG1 Fc with changes not written out]
notes: also called NB-100 antibody; VHH-hIgG4
B15: NB-90 (Fc fusion)
heavy: QVQLVESGGGLVQPGESLRLSCAASGFTFSPSAMSWARQAPGKGLEWVSSIYGDGNAYYSDSMKGRFTISRDNAKNTVYLQMNSLKPEDTALYYCAIGRWYEGRKKEEGLWGQGTQVTVAS[human IgG1 Fc with changes not written out]
notes: also called NB-90 antibody; VHH-hIgG4
B16: NB-367 (Fc fusion)
heavy: QVQLVESGGGLVQPGGSLRLSCAASGFTFSPSAMSWARRAPGKGLEWVSSIYGEGSTVYADSMKDRFTISRDNAKNTVYLQMNSLKPEDTAVYYCGVGRWYEGRQYEHDYWGQGTLVTVSS[human IgG1 Fc with changes not written out]
notes: also called NB-367 antibody; VHH-hIgG4

Columns and labels:
[1] = target: T1, biotin-TACI (Acrobiosystems, TAI-H82F6); experiment: ELISA, antibody coated, biotin-TACI in solution
[2] = target: T2, mouse BCMA his tag (Acrobiosystems, …); experiment: ELISA on coated mouse BCMA his tag (+ = OD450 <= 1.0)
[3] = target: T3, biotin-BAFFR (Acrobiosystems, BAR-H5257); experiment: ELISA, antibody coated, biotin-BAFFR in solution
[4] = target: T5, cynomolgus BCMA his tag (Acrobiosystems, BCA-C52H7) (cynomolgus, UniProt A0A2K5UD97 1-53); experiment: ELISA on coated cynomolgus BCMA his tag
T5 construct: Bought protein; also called Cyno BCMA his tag; not shown: his tag
T5 sequence (A0A2K5UD97 entry or part of it): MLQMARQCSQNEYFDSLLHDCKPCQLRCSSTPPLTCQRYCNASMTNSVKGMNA

[5] = target: T2, mouse BCMA his tag (Acrobiosystems, …); experiment: ELISA on coated mouse BCMA his tag (++ = OD450 > 1)
[6] = target: T4, human BCMA his tag protein …; experiment: SPR Biacore T200, antibody captured on protein A, BCMA His analyte, 1:1 fit

| Binder | binding result [1] | OD450 [2] [od] | binding result [3] | binding result [4] | OD450 [5] [od] | Kd [6] [nM] | koff [6] [s⁻¹] | kon [6] [M⁻¹ s⁻¹] |
| --- | --- | --- | --- | --- | --- | --- | --- | --- |
| B1 | no binding (tested: 4 µg/mL) | ≤ 1 | no binding (tested: 4 µg/mL) | no binding (tested: 2 µg/mL) | – | – | – | – |
| B2 | no binding (tested: 4 µg/mL) | – | no binding (tested: 4 µg/mL) | no binding (tested: 2 µg/mL) | > 1 | – | – | – |
| B3 | no binding (tested: 4 µg/mL) | ≤ 1 | no binding (tested: 4 µg/mL) | no binding (tested: 2 µg/mL) | – | – | – | – |
| B4 | no binding (tested: 4 µg/mL) | ≤ 1 | no binding (tested: 4 µg/mL) | no binding (tested: 2 µg/mL) | – | – | – | – |
| B5 | no binding (tested: 4 µg/mL) | – | no binding (tested: 4 µg/mL) | no binding (tested: 2 µg/mL) | > 1 | – | – | – |
| B6 | no binding (tested: 4 µg/mL) | – | no binding (tested: 4 µg/mL) | no binding (tested: 2 µg/mL) | > 1 | – | – | – |
| B7 | no binding (tested: 4 µg/mL) | – | no binding (tested: 4 µg/mL) | no binding (tested: 2 µg/mL) | > 1 | – | – | – |
| B8 | no binding (tested: 4 µg/mL) | – | no binding (tested: 4 µg/mL) | no binding (tested: 2 µg/mL) | > 1 | – | – | – |
| B9 | no binding (tested: 4 µg/mL) | – | no binding (tested: 4 µg/mL) | no binding (tested: 2 µg/mL) | > 1 | 0.29 | 0.00164 | 5.67e+06 |
| B10 | no binding (tested: 4 µg/mL) | – | no binding (tested: 4 µg/mL) | no binding (tested: 2 µg/mL) | > 1 | – | – | – |
| B11 | no binding (tested: 4 µg/mL) | – | no binding (tested: 4 µg/mL) | no binding (tested: 2 µg/mL) | > 1 | – | – | – |
| B12 | no binding (tested: 4 µg/mL) | – | no binding (tested: 4 µg/mL) | no binding (tested: 2 µg/mL) | > 1 | – | – | – |
| B13 | no binding (tested: 4 µg/mL) | – | no binding (tested: 4 µg/mL) | no binding (tested: 2 µg/mL) | > 1 | – | – | – |
| B14 | no binding (tested: 4 µg/mL) | – | no binding (tested: 4 µg/mL) | no binding (tested: 2 µg/mL) | > 1 | – | – | – |
| B15 | no binding (tested: 4 µg/mL) | – | no binding (tested: 4 µg/mL) | no binding (tested: 2 µg/mL) | > 1 | – | – | – |
| B16 | no binding (tested: 4 µg/mL) | – | no binding (tested: 4 µg/mL) | no binding (tested: 2 µg/mL) | > 1 | – | – | – |
